Source: PubChem BioAssay AID1345083 (National Center for Advancing Translational Sciences (NCATS), 2018)
Among all 94,000 compounds or so, about 6,200 (6.6%) were called active. Inconclusive means that the source gave no clear call. Such entries were picked first, then a sample of the others. Calls follow the shape of the dose curve; as a rule, active = well fitted inhibition curve with a large enough effect; inconclusive = small, poorly fitted or top-dose-only effect; inactive = flat fitted curve, though single readings scatter. Potencies beside an inconclusive call are fits to weak or partial responses and may not hold up.

Assay: Cytotoxic Profiling in HEK 293 Cell Line of Diverse Libraries Using Quantitative High-Throughput Screening; also: nearly all actives have a fitted effect of over 60% in size
Conditions: HEK 293 viability, ATP luminescence (CellTiter-Glo), 48-72 h; series mostly up to 115 µM
Method in brief: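 Viability of HEK 293 cells, plated at 250 cells/well, was judged by cellular ATP after compound treatment for 48 or 72 hr. Luminescence was imaged 10 min after CellTiter-Glo addition at room temperature.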
Potency is read from the fitted curve at half-maximal effect; tags tell the direction and shape of the fitted curve.

Q: With `Clc1ccccc1C1(c2ccnc(C3CC3)n2)CCNCC1` as the molecule, how does the Potency read?
A: inconclusive: 79.4 µM [inhibitor, partial curve, poor fit]

Q: For `CN(C)CC(=O)N1Cc2ccccc2CC2(CCCN(CCc3ccccc3)C2)C1` (stereo not drawn), which Potency is on record?
A: inconclusive: 56.2 µM [inhibitor, partial curve, poor fit]

Q: For `Cc1cccc(C(=O)N2CCC(N3C(=O)C4(CCCCC4)C3c3ccncc3)CC2)c1` (stereo not drawn), which Potency is on record?
A: inactive

Q: With `Cc1cc(C)c(CNC(=O)c2cc(-c3ccccc3O)cc3c2OCCN3C)c(=O)[nH]1` as the molecule, how does the Potency read?
A: inconclusive: 112 µM [inhibitor, single point]

Q: For `COC(=O)c1ccc2nc(C[C@@H]3C[C@@H](C(C)C)[C@H](CNC(=O)CC(C)(C)CC(=O)O)C=C3C)[nH]c2c1`, which Potency is on record?
A: inconclusive: 89.1 µM [inhibitor, single point]

Q: Which Potency does the source give for `N#CC1CCN(C(=O)c2nc(-c3cccnc3)c3cnccn23)CC1` here?
A: inconclusive: 112 µM [inhibitor, partial curve, poor fit]

Q: For `CCS(=O)(=O)N(C1CC1)C1CCOC2(CCN(C(=O)Cc3cccc(F)c3)CC2)C1` (stereo not drawn), which Potency is on record?
A: inconclusive: 89.1 µM [inhibitor, single point]

Q: With `COc1ccc(NC(=O)N2CCC(Oc3ncccc3C(=O)N3CCOCC3)C2)cc1` (stereo not drawn) as the molecule, how does the Potency read?
A: inconclusive: 100 µM [inhibitor, single point]

Q: Which Potency does the source give for `CS(=O)(=O)N1CCCC(C(=O)NCCN2CCOCC2)CCNC(=O)CC1` (stereo not drawn) here?
A: inactive

Q: Which Potency does the source give for `CC(C)c1noc(-c2cn(C3CCN(C(=O)Cc4ccc(Br)cc4)C3)nn2)n1` (stereo not drawn) here?
A: inconclusive: 89.1 µM [inhibitor, single point]

Q: Which Potency does the source give for `COC(=O)N1CCN(C(=O)c2cccc(-c3cccc(OC)c3)c2)CC1` here?
A: inconclusive: 89.1 µM [inhibitor, single point]

Q: Which Potency does the source give for `Cc1cc(Cl)ccc1S(=O)(=O)N1CCn2c(nn(CC3CC3)c2=O)C1` here?
A: inconclusive: 89.1 µM [inhibitor, single point]

Q: With `O=C(NC1CCN(c2nccc(Nc3ccccc3Cl)n2)CC1)c1ccc(F)cc1` as the molecule, how does the Potency read?
A: inconclusive: 56.2 µM [inhibitor, partial curve, poor fit]

Q: With `Cn1nccc1C(=O)N1CCCN(CCc2ccccc2)c2ccccc21` as the molecule, how does the Potency read?
A: inconclusive: 35.5 µM [inhibitor, partial curve]

Q: For `CC(C)c1nc2c(c(-c3ccc(O)cc3)n1)CCN(CC1CCCCC1)CC2`, which Potency is on record?
A: inconclusive: 56.2 µM [inhibitor, partial curve, poor fit]

Q: Which Potency does the source give for `CCN1CC(c2ccccc2)CC2(CCN(C(=O)Nc3ccccc3)CC2)C1` (stereo not drawn) here?
A: inconclusive: 89.1 µM [inhibitor, single point]

Q: With `O=C(C1CCC1)N1CCCCCC1c1nnc(-c2ccccc2)o1` (stereo not drawn) as the molecule, how does the Potency read?
A: inconclusive: 56.2 µM [inhibitor, partial curve, poor fit]

Q: For `CC(C)(C)C(=O)N1CCC(c2nn(-c3ccc(Cl)cc3)c(=O)[nH]2)CC1`, which Potency is on record?
A: inconclusive: 50.1 µM [inhibitor, partial curve, poor fit]

Q: Which Potency does the source give for `Cc1ccc(C(=O)N2CCC3(CC2)CN(C(C)C)C3c2ccccc2)s1` (stereo not drawn) here?
A: inconclusive: 56.2 µM [inhibitor, partial curve, poor fit]

Q: Which Potency does the source give for `O=[S+]([O-])(c1cccs1)N1CCCN(c2ccc3nnc(-c4ccccc4)n3n2)CC1` here?
A: inactive

Q: Which Potency does the source give for `CC(C)N1CCC2(CC1)CN(C(=O)c1cn(C)cn1)Cc1ccccc1O2` here?
A: inconclusive: 50.1 µM [inhibitor, partial curve, poor fit]

Q: Which Potency does the source give for `CCOc1ccccc1CN1CCC2(CCN(C(=O)C3CC3)CC2)Oc2ccccc21` here?
A: active: 44.7 µM

Q: Which Potency does the source give for `Cc1ccccc1CN1Cc2nc(-c3cnn(C)c3)ccc2OCC1=O` here?
A: active: 100 µM

Q: With `O=C(c1ccc2c(c1)C1(CCN(CC3CC3)C1)CN2Cc1ccccc1)N1CCOCC1` (stereo not drawn) as the molecule, how does the Potency read?
A: inconclusive: 70.8 µM [inhibitor, partial curve, poor fit]

Q: Which Potency does the source give for `COc1ccc(-c2cc(N3CCCC(NC(=O)c4ccc5ncccc5c4)C3)n[nH]2)cc1` (stereo not drawn) here?
A: inconclusive: 50.1 µM [inhibitor, partial curve, poor fit]

Q: For `Cc1ccc(Cn2c(C3CCN(C(=O)c4cc(Cl)ccc4F)CC3)n[nH]c2=O)cc1`, which Potency is on record?
A: inconclusive: 39.8 µM [inhibitor, partial curve, poor fit]

Q: For `Cc1cccc(NC(=O)N2CCc3c(C(=O)NC(C)(C)C)cccc32)c1`, which Potency is on record?
A: inconclusive: 79.4 µM [inhibitor, single point]

Q: With `CCC(C)(C)C(=O)N1CC(c2nnc(-c3ccc(C)cc3)o2)C2(CCOCC2)C1` (stereo not drawn) as the molecule, how does the Potency read?
A: inconclusive: 89.1 µM [inhibitor, single point]

Q: For `CCn1cc(CN2CC(Oc3ccc(-c4noc(-c5ccncc5)n4)cc3)C2)cn1`, which Potency is on record?
A: inconclusive: 28.2 µM [inhibitor, partial curve, poor fit]

Q: For `CCC(=O)N1CCc2c(C(=O)NCc3cccc(OC)c3OC)cccc21`, which Potency is on record?
A: inconclusive: 89.1 µM [inhibitor, single point]

Q: Which Potency does the source give for `Cc1ccc(C(=O)N2CCC3(CC2)N(c2ccccc2)C(=O)CS3(=O)=O)s1` here?
A: inactive

Q: For `CN(C)C(=O)c1ccc(OC2CCN(C(=O)C3CC3)CC2)nc1`, which Potency is on record?
A: inactive

Q: Which Potency does the source give for `O=c1cc(N2CCOCC2)oc2c(-c3ccccc3F)nccc12` here?
A: inconclusive: 39.8 µM [inhibitor, partial curve, poor fit]

Q: For `Cc1nc2cccnc2n1CC1CCCN(S(=O)(=O)c2ccc(F)cc2)C1` (stereo not drawn), which Potency is on record?
A: inconclusive: 44.7 µM [inhibitor, partial curve, poor fit]

Q: For `Cc1nn(-c2ccccc2)c2c1C(C)N(C1CN(C(=O)c3ccc(Cl)nc3)C1)C2=O` (stereo not drawn), which Potency is on record?
A: inconclusive: 89.1 µM [inhibitor, single point]

Q: For `CC(=O)NC1(C)CN(c2ccc(OC(F)(F)F)cc2)C1`, which Potency is on record?
A: inconclusive: 126 µM [inhibitor, partial curve, poor fit]

Q: For `Cc1ccc(CC(=O)N2CCC3(CC2)N=C(c2ccc(C)cc2)NO3)cc1`, which Potency is on record?
A: inactive

Q: With `O=C(Nc1cccc(Cl)c1)N1CCC(c2noc(COc3cccnc3)n2)CC1` as the molecule, how does the Potency read?
A: inconclusive: 89.1 µM [inhibitor, partial curve]
